According to PubChem BioAssay AID1030 (National Center for Advancing Translational Sciences (NCATS), 2008):
The whole screen tested about 220,000 compounds, of which about 16,000 (7.3%) were called active. Inconclusive results, whose numbers are uncertain, are shown with a selection of clear calls. The call rests on the fitted dose curve; in most records, active means well fitted inhibition curve with a large enough effect (not every such curve was filed as active); inconclusive means small, poorly fitted or top-dose-only effect, or another doubt; inactive means no such curve, though single readings can be large or run the other way. Potencies beside an inconclusive call are fits to weak or partial responses and may not hold up.

target: Aldehyde dehydrogenase 1A1 (Homo sapiens) (UniProt P00352); assay: qHTS Assay for Inhibitors of Aldehyde Dehydrogenase 1 (ALDH1A1); details: Purified ALDH1A1, NADH fluorescence, propionaldehyde substrate; series mostly up to 75.3 µM
Chain of UniProt P00352 (P00352 whole entry, looked up): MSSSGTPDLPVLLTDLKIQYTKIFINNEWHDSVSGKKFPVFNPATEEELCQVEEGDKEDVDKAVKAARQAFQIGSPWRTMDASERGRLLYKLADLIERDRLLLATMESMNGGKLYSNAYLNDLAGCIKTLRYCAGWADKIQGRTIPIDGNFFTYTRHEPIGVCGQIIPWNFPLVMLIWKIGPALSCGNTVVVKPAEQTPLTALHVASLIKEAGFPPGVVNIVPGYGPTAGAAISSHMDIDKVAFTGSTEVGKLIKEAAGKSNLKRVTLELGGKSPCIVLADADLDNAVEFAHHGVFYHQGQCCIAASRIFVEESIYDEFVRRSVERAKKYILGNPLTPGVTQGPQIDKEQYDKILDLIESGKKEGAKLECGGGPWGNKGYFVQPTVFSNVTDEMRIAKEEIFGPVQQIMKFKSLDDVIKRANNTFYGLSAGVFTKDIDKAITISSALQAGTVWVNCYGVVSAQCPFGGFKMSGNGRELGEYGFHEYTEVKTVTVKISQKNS
Potency means the concentration at half of the fitted maximal effect; tags describe the fitted curve by direction and shape.

Potency, inactive:
Cc1ccc(S(=O)(=O)N2c3ccccc3CC2C)cc1 (centres undefined)
CSc1nc2ccsc2c(=O)n1-c1ccccn1
CCOC(=O)c1c(NC(=O)Cn2nnc(-c3ccccc3Cl)n2)sc(C)c1C
O=C1C[C@H](c2ccccc2)Oc2cc(O)cc(O)c21
COc1cc2c(cc1OC)CN(C(=O)COc1ccc(C)c(C)c1)CC2
CN(Cc1nccn1C)C(=O)CCc1nnc(CCC2CCCCC2)o1
NCCCCCc1nnc(SCc2cccc(Cl)c2)o1
Oc1ccc(Br)cc1/C=N/Nc1nc(N2CCCCC2)nc(N2CCOCC2)n1
COc1ccc(CC(=O)Nc2cccc(/C(C)=N/NC(=O)c3cccc([N+](=O)[O-])c3)c2)cc1
C=CCn1c(SCn2nnc3ccccc3c2=O)nnc1-c1ccc(F)cc1
COc1ccc2nc(Cl)c(C#N)cc2c1
FC(F)(F)c1cccc(-c2nn[nH]n2)c1
Cc1cccc(NC(=O)NCc2ccc3c(c2)cc(C)n3C)c1
CC(NC(=O)c1cn(C(C)c2ccccc2F)nn1)c1ccncc1 (centres undefined)
CCCC(=O)Nc1nnc(-c2ccccc2)o1
O=C(NCCc1c[nH]c2ccccc12)OCCSS(=O)(=O)O
COc1ccc(OC)c(C2CC(=O)NC(SC)=C2C#N)c1 (centres undefined)
O=C(N/N=C/c1ccco1)c1ccccn1
CCNC(=O)CSc1nnc(-c2ccccc2)n1-c1ccc(OCC)cc1

Potency, active:
COCc1cc(C)nc(SCC[N+](C)(C)CC(=O)c2ccc(Br)cc2)c1C#N 7.94 µM
COc1ccc(C(=O)CC(c2ccccc2)C2CCCCC2=O)cc1 (centres undefined) 0.501 µM
O=S(=O)(c1ccc(Cl)c(NC(=S)Nc2ccccc2N2CCOCC2)c1)N1CCOCC1 20 µM

Potency, inconclusive:
CCOc1ccc(-n2c(C)cc(/C=N/N(C)C)c2C)cc1 39.8 µM [inhibitor, single point]
O=S(=O)(c1ccccc1)N1CCC2(CCN(c3cccc(-c4ccccc4)c3)CC2)CC1 20 µM [inhibitor, partial curve]
CC(=O)N1CCc2cc(C(=O)CN3CCN(c4ccccc4F)CC3)ccc21 4.47 µM [inhibitor, partial curve]
COc1cccc(CN2CCC(N(CCc3ccccc3)Cc3ccccc3)CC2)c1OC 39.8 µM [inhibitor, single point]
CCOC(=O)c1ccc2[nH]c(C)c(CCC(C)=O)c(=O)c2c1 10 µM [inhibitor, partial curve]
COc1ccc(CCn2nnnc2C(C(C)C)N2CCC(C(N)=O)CC2)cc1OC (centres undefined) 39.8 µM [inhibitor, single point]
c1csc(-c2cnc3ccccc3n2)c1 31.6 µM [inhibitor, partial curve]
CC1(C)NC(=O)N(CC(=O)OCC(=O)Nc2cc(S(=O)(=O)N3CCCCC3)ccc2Cl)C1=O 35.5 µM [inhibitor, single point]
C=CCn1c(-c2ccc(OC)cc2)nc2nc3ccccc3nc21 25.1 µM [inhibitor, partial curve]
CC(C)C(C(=O)NCC1CCCO1)N(Cc1ccco1)C(=O)CNS(=O)(=O)c1ccccc1 (centres undefined) 39.8 µM [inhibitor, single point]
N#Cc1c(N)sc2c1CCN(CCc1ccccc1)C2 37.7 µM [inhibitor, single point]
CN(C)S(=O)(=O)N1CCN(c2ccc([N+](=O)[O-])c(N3CCOCC3)c2)CC1 39.8 µM [inhibitor, single point]
CC(C)(C)c1cc(CN2CCN(CCO)CC2)cc(C(C)(C)C)c1O 15.8 µM [inhibitor, partial curve]
CC(=O)c1ccc(-n2c(-c3cc(-c4ccsc4)n[nH]3)n[nH]c2=S)cc1 22.4 µM [inhibitor, partial curve]
C=C(C)C1Cc2nc(N)nc(C)c2C1 (centres undefined) 17.8 µM [inhibitor, partial curve]
Cc1cc(C)cc(C(=O)N2CC(C)OC(C)C2)c1 (centres undefined) 25.1 µM [inhibitor, single point]
COCCn1c(SCC(=O)NCCc2ccccc2)nnc1-c1ccco1 35.5 µM [inhibitor, single point]
Cc1cccc(Cc2cnc(NC(=O)c3ccc(C)o3)s2)c1 39.8 µM [inhibitor, partial curve, poor fit]
O=[N+]([O-])c1nn(-c2ccc3c(c2)OCCO3)n(O)c1=NC1CCCC1 2.82 µM [inhibitor, partial curve]
Cc1cc(C(=O)CN2C(=O)CN(C)C2=O)c(C)n1-c1cccc(S(=O)(=O)N2CCOCC2)c1 39.8 µM [inhibitor, single point]
CC[n+]1c(/C=C/Nc2ccccc2)oc2ccccc21 31.6 µM [inhibitor, single point]
COC(=O)c1sc2cc(C(F)(F)F)cnc2c1-c1ccccc1 35.5 µM [inhibitor, single point]
COCCCn1c(-c2ccc(OC)cc2)nc2nc3ccccc3nc21 39.8 µM [inhibitor, single point]
Cc1ccc(NC(=O)CO/N=C/c2ccc(N(C)C)cc2)cc1 44.7 µM [inhibitor, single point]
O=S(=O)(c1ccccc1)N1CCC[C@@]2(CCN(c3ncccn3)C2)C1 39.8 µM [inhibitor, single point]
COc1ccc(C2C(C#N)=C(N)Oc3n[nH]c(C)c32)cc1Cn1nc(C)c([N+](=O)[O-])c1C (centres undefined) 39.8 µM [inhibitor, single point]
CCc1ccc2c(COn3nnc4ccc(S(=O)(=O)N(C)C)cc43)cc(=O)oc2c1 20 µM [inhibitor, partial curve]
